According to PMC4336329 (PLoS ONE, 2015):
Among all 310,000 compounds or so, about 14,000 (4.5%) showed an effect of 50% or more. The effect is printed as a negative number. This is one part of the list.

These compounds were tested against human ether-à-go-go-related gene (hERG) potassium channel (human, UniProt Q12809) (assay: primary screen, population patch clamp on CHO cells stably expressing hERG).
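Further: peak tail current of the secondary pulse compared with the same well before compound.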

Sequence of human ether-à-go-go-related gene (hERG) potassium channel (Q12809 whole entry, looked up): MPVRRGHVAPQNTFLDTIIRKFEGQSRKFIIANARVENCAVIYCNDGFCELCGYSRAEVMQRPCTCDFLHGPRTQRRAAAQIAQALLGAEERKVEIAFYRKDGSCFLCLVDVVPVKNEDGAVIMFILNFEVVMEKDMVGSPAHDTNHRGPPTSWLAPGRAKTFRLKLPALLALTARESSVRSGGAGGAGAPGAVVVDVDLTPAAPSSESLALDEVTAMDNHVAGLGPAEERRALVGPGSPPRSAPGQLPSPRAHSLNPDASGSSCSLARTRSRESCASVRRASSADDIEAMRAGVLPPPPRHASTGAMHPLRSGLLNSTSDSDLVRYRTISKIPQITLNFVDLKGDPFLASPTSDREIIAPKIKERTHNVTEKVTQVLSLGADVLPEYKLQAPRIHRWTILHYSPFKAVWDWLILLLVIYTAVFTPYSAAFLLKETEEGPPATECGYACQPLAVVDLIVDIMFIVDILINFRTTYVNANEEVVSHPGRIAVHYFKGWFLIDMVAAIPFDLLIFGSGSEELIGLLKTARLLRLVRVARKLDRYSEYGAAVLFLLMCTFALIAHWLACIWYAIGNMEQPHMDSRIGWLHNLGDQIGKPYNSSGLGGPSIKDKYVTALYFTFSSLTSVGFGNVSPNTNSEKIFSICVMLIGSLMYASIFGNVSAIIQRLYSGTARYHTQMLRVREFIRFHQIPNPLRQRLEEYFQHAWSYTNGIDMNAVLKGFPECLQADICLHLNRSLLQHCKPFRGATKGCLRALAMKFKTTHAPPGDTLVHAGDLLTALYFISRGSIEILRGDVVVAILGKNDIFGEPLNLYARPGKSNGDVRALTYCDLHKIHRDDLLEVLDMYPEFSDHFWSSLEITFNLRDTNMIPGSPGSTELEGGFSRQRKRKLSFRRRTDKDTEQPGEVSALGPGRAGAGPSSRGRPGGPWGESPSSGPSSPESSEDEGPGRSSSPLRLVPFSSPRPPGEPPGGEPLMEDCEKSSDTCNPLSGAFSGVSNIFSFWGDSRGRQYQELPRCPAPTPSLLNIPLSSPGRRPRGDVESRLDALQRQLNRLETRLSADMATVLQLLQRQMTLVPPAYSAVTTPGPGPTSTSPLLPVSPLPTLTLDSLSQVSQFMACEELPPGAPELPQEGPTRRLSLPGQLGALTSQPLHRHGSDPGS

SMILES | hERG current change (%, negative = inhibition) at 10uM [%]
CC(C)N(Cc1nc(-c2ccccc2)no1)C(=O)Cc1ccccc1 | -15.4
O=C(NC1CCS(=O)(=O)C1)c1cccc(Cl)c1 (centres unmarked) | 8.91
Cc1nc2scc(C)n2c(=O)c1S(=O)(=O)NCC1CCN(Cc2ccc(F)cc2)CC1 | -49.7
O=C1CSC(c2ccc([N+](=O)[O-])cc2)N1c1ccc(O)cc1 (centres unmarked) | 7.95
O=C(CCc1nnc(CCCCc2ccccc2)o1)NCCc1cccnc1 | -37.2
CC(C)NS(=O)(=O)c1cc(F)ccc1CN1C(=O)c2cccnc2C1=O | 10.5
COc1ccc2cc(CCNC(=O)c3ccc(Br)o3)c(=O)[nH]c2c1 | -9.51
COc1cccc(C2CC(c3ccc(Cl)cc3Cl)n3nc(N)nc3N2)c1 (centres unmarked) | -27.2
CCOc1ccc(S(=O)(=O)N2CCC(c3ccccc3)CC2)cc1C(=O)O | 18.2
COc1cccc(C(=O)NNC(=O)c2sccc2-n2cccc2)c1 | 24.7
COc1ccc(C2CC(=O)C3=C(C2)Nc2ccccc2N(C(C)=O)C3c2ccco2)cc1 (centres unmarked) | -35.8
COC(=O)c1ccc(CN2CCN(C3CCCCC3)C(CCO)C2)cc1 (centres unmarked) | -22.9
CN(C)c1c([N+](=O)[O-])cc2[nH]c(=O)[nH]c2c1[N+](=O)[O-] | -9.83
Cc1cc(-n2nc3ccccc3n2)c(O)c([N+](=O)[O-])c1 | 6.11
COc1ccc(CNC(=O)C(c2ccco2)N(C(=O)CNS(=O)(=O)c2ccccc2)c2ccccc2C)cc1 (centres unmarked) | -12.6
CN1c2ccccc2C(=O)/C(=C\Nc2ccc(F)cc2)S1(=O)=O | 0.835
COCCCN1C(=O)C(=O)/C(=C(/O)c2ccc(OC)cc2)C12C(=O)N(C)c1ccccc12 (centres unmarked) | 6.06
CC/C=C(/NC(C)=O)c1ccccc1 | 13
c1ccc(-c2nnc3sc(CN4CCC5(CC4)OCCO5)cn23)cc1 | -20.6
Cn1c(SCC(=O)Nc2cccc(F)c2)nc2c([nH]c3ccccc32)c1=O | 17.9
CCCC(=O)NNC(=O)CC(=O)Nc1ccccc1C(=O)O | 7.79
C=CCn1c(=O)c2c(nc(Br)n2Cc2ccccc2Cl)n(C)c1=O | -9.64

SMILES | hERG current change (%, negative = inhibition) at 10uM [%]
Cc1ccc(NC(=O)c2sc(N)nc2-c2ccc([N+](=O)[O-])cc2)c(C)c1 | 2.18
O=C(CNCc1ccc(Cl)cc1)N1CCc2ccccc2C1 | -44.7
COc1ccc(C2NC(=O)CCC2[N+](=O)[O-])c(OC)c1OC (centres unmarked) | 12.2
C=CCNc1oc(-c2ccco2)nc1S(=O)(=O)c1ccccc1 | -4.58
COc1ccc(S(=O)(=O)N2CCCC2)cc1Br | 6.83
O=C(NCc1cccnc1)c1ccccc1NS(=O)(=O)c1ccccc1 | 9.45
COc1ccccc1Nc1c2c(nc3ccccc13)CCC2 | -45.6
O=C1NC(c2ccccc2)C(C(=O)c2cccs2)=C1O (centres unmarked) | 21.9
Cc1ccc(OC(=O)c2cccc(C(=O)Oc3ccc(C)cc3)n2)cc1 | 15.2
CC(NC(=O)C(C)N1CCN(Cc2ccccc2)CC1)c1ccc(F)cc1 (centres unmarked) | 5.35
N#C/C(=C\C=C\c1ccccc1)c1nc(-c2ccc(Cl)cc2)cs1 | 11.7
CC(=O)Nc1c(O)nc(SCc2ccccc2C#N)[nH]c1=O | 6.95
CCOC(=O)c1cn(CC(=O)Nc2ccc(OC)cc2OC)nn1 | 9.07
O=C(COc1ccc(S(=O)(=O)N2CCOCC2)cc1)NC1CCCCC1 | 4.67
COC(=O)Cc1csc(Nc2ccc(Cl)cc2)n1 | 7.01
Cc1c(C)c2ccc(OCC(=O)NCCCn3ccnc3)c(C)c2oc1=O | -32.7
CCO[C@@H]1OC(C(=O)NCc2ccccc2)=C[C@H](C)[C@H]1CCCO | 4.01
CC(C)n1c(NCCO)nc2ccccc21 | 25.8
Cc1ccc(-n2nc3c(N4CCC(C(=O)NCc5ccc(C)o5)CC4)nnc(C)c3c2C)cc1 | -22.3
CC(C)CC(=O)Nc1c2c(nn1-c1ccc(F)cc1)CSC2 | 10.1
CCN(CC)CCCC(C)NC(=O)c1cccc(S(=O)(=O)N2CCc3ccccc32)c1.Cl (centres unmarked) | -58.5
CCC(CC)C(=O)Nc1cccc(-c2nc3ccccc3o2)c1 | -29
